In patent publication US20240287089A1, “Preparation and Uses of 7-Azaindenoisoquinolines” (Purdue Research Foundation, priority 0001, published 2024):

Test: Pharmacokinetics IV and PO in male CD1 mice
[1] = male, CD1, mouse, plasma, iv, 1 mg/kg

For `CCNCCCn1c2c(c3cc(OC)c(OC)cc3c1=O)C(=O)c1cc3c(nc1-2)OCO3` [G104, 6-(3-(Ethylamino)propyl)-2,3-dimethoxy-5H-[1,3]dioxolo[4″,5″:5′,6′]pyrido [3′,2′:4,5]cyclopenta[1,2-c]isoquinoline-5,12(6H)-dione], which AUCInf (IV 1 mg/kg, male CD1 mice) is on record?
The AUCInf was 156 ng·h/mL.

What about the AUClast (IV 1 mg/kg, male CD1 mice) of the same molecule?
Its AUClast is 142 ng·h/mL.

What about the AUClast/D (IV 1 mg/kg, male CD1 mice) of the same molecule?
The AUClast/D was 142 ng·h/mL.

What about the “AUC—% Extrap—obs” value (IV 1 mg/kg, male CD1 mice) of the same molecule?
Its value is 8.98%.

And the C0 (IV 1 mg/kg, male CD1 mice)?
Its C0 is 119 ng/mL.

And the Cl_obs (IV 1 mg/kg, male CD1 mice)?
The Cl_obs was 107 mL/min/kg.

What about the “MRTInf—obs” value (IV 1 mg/kg, male CD1 mice) of the same molecule?
Its value is 2.66 h.

And the T1/2 (IV 1 mg/kg, male CD1 mice)?
Its T1/2 is 2.73 h.

What about the AUCInf (PO 10 mg/kg, male CD1 mice) of the same molecule?
The AUCInf was 222 ng·h/mL.

And the AUClast/D (PO 10 mg/kg, male CD1 mice)?
Its AUClast/D is 20.2 ng·h/mL.

And the “AUC—% Extrap—obs” value (PO 10 mg/kg, male CD1 mice)?
Its value is 8.81%.

What about the “F (fraction of the dose absorbed)” value (PO 10 mg/kg, male CD1 mice) of the same molecule?
Its value is 14.2%.

And the “MRTInf—obs” value (PO 10 mg/kg, male CD1 mice)?
Its value is 9.43 h.

What about the T1/2 (PO 10 mg/kg, male CD1 mice) of the same molecule?
The T1/2 was 6.91 h.

What about the Tmax (PO 10 mg/kg, male CD1 mice) of the same molecule?
The Tmax was 0.25 h.

What about the Vd [1] of the same molecule?
Its Vd is 17 L/kg.

And the half-life [1]?
The half-life was 2.73 h.

And the half-life (male, CD1, mouse, plasma, po, 10 mg/kg)?
The half-life was 6.91 h.
